# From PubChem BioAssay AID1963576 (National Center for Advancing Translational Sciences (NCATS), 2024)
# Hit rate of the full screen: of about 46,000 compounds, about 60 (0.1%) were called active. Inconclusive results (about 3%) are left out. Calls follow the shape of the dose curve; as a rule, active = well fitted inhibition curve with a large enough effect; inconclusive = small, poorly fitted or top-dose-only effect; inactive = no such curve, though single readings can be large or run the other way. The list shows a part of the results.
# Experiment: Primary qHTS assay for Inhibitors of ovarian cancer metastasis using an organotypic tumor microenvironment (TME) model. Also: nearly all actives have a fitted effect of over 65% in size.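 As to activity change, negative = inhibition: plate controls were DMSO wells for no effect and tomatine positive control wells for full effect.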
# Conditions: SKOV3ip1-GFP adhesion/invasion on 3D omental model, fluorescence; series mostly up to 45.8 µM; activity change, negative = inhibition: at the top concentration
# Procedure, shortened: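 qHTS, 4-pt dose (0.36-46 umol/L); SKOV3ip1-GFP, 1,200 cells/well, no FBS; primary omental fibroblast/mesothelial co-culture 48 h pre-grown; 2 h RT + 16 h 37 C; PBS wash, 4% PFA; GFP count 488/509 nm.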
SMILES,"activity change, negative = inhibition",outcome
COc1ccc(-c2nc(CNS(=O)(=O)c3ccc(F)cc3)cs2)cc1,inactive: 8.74%,
Cc1ccc(C)c(N2CCN(C(=O)c3c4c(nc5ccccc35)C(=O)N(C3CCCCC3)C4)CC2)c1,inactive: -5.96%,
COc1ccccc1N1CCN(C(=O)c2c3c(nc4ccccc24)C(=O)N(C2CCCCC2)C3)CC1,inactive: -10.2%,
CCCNC(=O)CN1C(=O)c2cccnc2Sc2ccccc21,inactive: 3.85%,
C[C@@H]1CN(c2c(F)c(N)c3c(=O)c(C(=O)O)cn(C4CC4)c3c2F)C[C@H](C)N1,inactive: 3.73% [at 23.2 µM],
Cc1cccc(NC(=O)CSc2nc(C)c(Cc3ccccc3)c(=O)[nH]2)c1,,inactive
COc1ccc2cc(CNc3ccc(OC)c(OC)c3)c(=O)n(CC(=O)Nc3ccc(C)cc3)c2c1,inactive: 36.8%,
COc1cc(OC)cc(-n2c(=O)c3ccccc3n(CC(=O)NCCc3ccc(OC)c(OC)c3)c2=O)c1,inactive: -6.64%,
CCCOc1cccc(C(=O)Nc2ccc(-c3nc4ccccc4o3)cc2)c1,inactive: -0.447%,
CCC(C)NC(=O)c1sc2nc(C)c(C(=O)Nc3ccc(Cl)cc3)c(-c3ccc(Br)cc3)c2c1N (stereo unspecified),inactive: -2.02%,
O=C(CSc1nc2c(c(=O)[nH]1)CN(Cc1ccc3c(c1)OCO3)CC2)Nc1ccc(F)cc1,inactive: -2.44%,
COc1ccc(CNC(=O)c2cccc(N3CCCS3(=O)=O)c2)cc1OC,,inactive
COc1ccc(NC(=O)CN2C(=O)C3(SCC(=O)N3c3ccccc3)c3ccccc32)cc1Cl (stereo unspecified),,inactive
O=c1cc(-c2ccc(F)cc2)nc(SCc2nc(-c3cccc(C(F)(F)F)c3)no2)[nH]1,inactive: 0.614%,
Cc1c(C(=O)N(Cc2cccc(F)c2)C2CCS(=O)(=O)C2)oc2cc(Br)ccc12 (stereo unspecified),inactive: 7.69%,
CCOC(=O)c1c(C)c(-c2ccccc2)n(CC(=O)NC2CCCCCC2)c1C,,inactive
CCn1c(=NC(=O)c2ccc(S(=O)(=O)N3CCCC3)cc2)sc2cc(Br)ccc21,inactive: 52.5%,
CCc1ccc(N2C(=O)CSC23C(=O)N(Cc2cccc(OC)c2)c2ccccc23)cc1 (stereo unspecified),inactive: -23.1%,
O=C(Cn1ncn2nc(-c3cccs3)cc2c1=O)NCc1ccccc1Cl,inactive: -0.812%,
CC(C)c1ccc(NC(=O)c2ccc(Cn3nc(N4CCN(c5ccccc5)CC4)ccc3=O)o2)cc1,,inactive
Cc1cccc(Cn2cnc3c(oc4ccccc43)c2=O)c1,inactive: 13.5%,
COc1cccc(NC(=O)Cn2cc(C(=O)c3ccc(F)cc3)c(=O)c3cc(OC)ccc32)c1,inactive: 4.62%,
C=CCc1ccc(OCc2ccc(C(=O)Nc3ccc(NC(C)=O)cc3)o2)c(OC)c1,inactive: -10.7%,

SMILES,"activity change, negative = inhibition",outcome
CC1CCCN(S(=O)(=O)c2ccc(N3CCCCS3(=O)=O)cc2)C1 (stereo unspecified),inactive: 8.24%,
CCCN(CCC)CCNC(=O)c1sc2nc3n(c(=O)c2c1C)CCCCC3,inactive: 6.04%,
COc1ccc(-n2c(C)nc3cc(C(=O)NC4CCCCCC4)ccc32)cc1,inactive: 2.59%,
COC(=O)c1c(NC(=O)c2nc(SCc3ccccc3C)ncc2Cl)sc2c1CCCC2,inactive: -6.41%,
Cc1ccc(C)c(N2C(=O)N(C)c3ccccc3S2(=O)=O)c1,,inactive
CCC(=O)N1CCc2cc(CNS(=O)(=O)c3ccc(Br)s3)ccc21,inactive: 3.72%,
Cc1cc(C)cc(NC(=O)N2CCC(CN3CCc4ccccc4C3)CC2)c1,inactive: -8.03%,
N#Cc1ccc(NC2=NS(=O)(=O)c3ccccc32)cc1,inactive: 6.79%,
Cc1ccc(NS(=O)(=O)c2ccc3[nH]c4c(c3c2)CCCCCC4)cc1,inactive: -14.6%,
COc1ccc(-c2c(C)nn3c(N4CCN(c5ccccc5F)CC4)cc(C)nc23)cc1OC,inactive: 8.01%,
CCc1c(C)sc2c1CCN(C(=O)Nc1cc(C)ccc1OC)C2c1ccc(F)cc1 (stereo unspecified),inactive: -13.6%,
CCOc1ccc(-n2c(SCC(=O)Nc3ccc4c(c3)OCCO4)nc3c([nH]c4ccccc43)c2=O)cc1,inactive: 11.6%,
Clc1ccccc1-c1nnc(-c2ccccc2CNc2ccc(Br)cc2)o1,inactive: -11.4%,
OCCN1CCN(C(c2ccc(Cl)cc2Cl)c2sc3nc(-c4ccco4)nn3c2O)CC1 (stereo unspecified),inactive: -5.64%,
CCc1nc2ccc(C(=O)NCc3ccc(SC)cc3)cc2nc1CC,inactive: 31.2%,
CCc1cccc(NC(=O)C2CCC(CNS(=O)(=O)c3ccc4c(c3)CCCC(=O)N4)CC2)c1 (stereo unspecified),inactive: 70.5%,
Cc1cncn1CCc1nc2c3ccccc3nc(SCC(=O)Nc3ccc(F)cc3)n2n1,inactive: 0.639%,
CCOc1ccc(CCNC(=O)Cn2ncc3c([nH]c4ccccc43)c2=O)cc1OCC,inactive: 1.79%,
CCOc1ccccc1CNC(=O)c1cnc2sc(N3CCOCC3)nn2c1=O,,inactive
CCN(C(=O)Cn1c(=O)nc(-c2ccccc2)c2cc(Cl)ccc21)c1cccc(C)c1,inactive: 2.23%,
Cc1ccc(CNC(=O)c2sc3nc(-c4ccccc4)cn3c2C)cc1,inactive: -8.03%,
O=C(CCS(=O)(=O)c1cc(Br)cc2c1N(C(=O)C1CC1)CC2)Nc1ccc(F)cc1,inactive: -2.78%,
Cc1ccc(Cl)cc1N1CCN(C(=O)c2ccc3c(c2)N(Cc2ccccc2F)C(=O)c2ccccc2S3=O)CC1 (stereo unspecified),inactive: 12%,
